The record followed here is patent US20250205375A1, “HER3 RADIOIMMUNOTHERAPY FOR THE TREATMENT OF SOLID CANCERS” (ACTINIUM PHARMACEUTICALS, INC., priority 2023, published 2025).

Experiment [1] has as its system OVCAR5 cell line xenograft. In words: Human OVCAR5 cell line xenograft ovarian cancer mouse model, tumor growth. In kind it is in vivo. The conditions noted are these: single dose of 0.2 μCi or 0.4 μCi on day 1. The protocol:
FIG. 17A is a graph showing the effects on tumor growth in a human OVCAR5 cell line xenograft ovarian cancer mouse model for ^225Ac-labeled HER3 antibody, in a single dose of 0.2 μCi or 0.4 μCi, versus standard of care Bevacizumab (10 mg/kg), ^225Ac-labeled non-specific IgG control (0.4 μCi), and naked (cold) HER3 mAb control (10 μg). All agents/controls were dosed on day 1.
FIG. 17B is a graph showing the effects on tumor growth in a human OVCAR5 cell line xenograft ovarian cancer mouse model for ^177Lu-labeled HER3 antibody, in a single dose of 200 μCi or 400 μCi, versus standard of care Bevacizumab (10 mg/kg), ^177Lu-labeled non-specific IgG control (400 μCi), and naked (cold) HER3 mAb control (10 μg). All agents/controls were dosed on day 1.

Experiment [2] deals with DU145 cell line xenograft. In words: Human DU145 cell line xenograft prostate cancer mouse model, tumor growth. In kind it is in vivo. On the procedure:
FIG. 15 is a graph showing the effects on tumor growth in a human DU145 cell line xenograft prostate cancer mouse model for ^225Ac-labeled HER3 ARC, singly, doubly or triply dosed, and controls including vehicle only, HER3 ADC (patritumab […] HER3-DXd), non-specific IgG ADC (IgG deruxtecan), and ^225Ac-labeled non-specific IgG (in a single dose or in two doses). […] IgG deruxtecan), and naked (cold) HER3 mAb control (50 μg). Except where otherwise specified, all agents/controls were dosed on day 1.

Experiment [3] relates to 22RV1 cell line xenograft. In words: Human 22RV1 prostate cancer cell line xenograft mouse model, tumor growth. In kind it is in vivo. The text has this:
FIG. 16 is a graph showing the effects on tumor growth in a human 22RV1 prostate cancer cell line xenograft mouse model for ^225Ac-labeled HER3 antibody, singly, doubly or triply dosed, versus a HER3 ADC and other controls. The doses and dose schedule of the various agents and controls are the same here as described above for the experiment of FIG. 15.

Experiment [4] deals with ACHN human renal cancer cells xenograft. In words: ACHN human renal cell carcinoma xenograft in Balb/c nude mice, tumor growth. In kind it is in vivo, mouse. The conditions noted are these: 0.4 μCi on day 1 and 0.2 μCi on day 21, intravenously. On the procedure:
In more detail, the experiment was performed as follows. Female Balb/c nude mice were subcutaneously injected with 5×10^6 ACHN human renal cancer cells (ATCC; CRL-1611). […] Drug treatments were administered orally for vehicle (PBS) and tivozanib or intravenously for unlabeled/unconjugated HER3 monoclonal antibody (HER3), HER3-ARC (Actinium-225 labeled HER3 antibody) and HER3-ADC (patritumab deruxtecan). Single agents or combinations were dosed as follows: vehicle (daily for 14 days), unlabeled/unconjugated HER3 antibody (100 μg on day 1), HER3-ADC (3 mg/kg on day 1 and 21), HER3-ARC (0.4 μCi on day 1 and 0.2 μCi on day 21), tivozanib (0.3 mg/kg daily for 14 days), tivozanib (0.3 mg/kg daily for 14 days) with HER3-ARC (0.4 μCi on day 16), and HER3-ARC (0.4 μCi on day 1) with tivozanib (0.3 mg/kg starting day 3, daily for 14 days). […] HER3-ARC was always administered in a total protein dose of 50 μg irrespective of the radiation dose. Tumor volumes were measured twice weekly by caliper and body weights were monitored. The mean tumor volume for each group was analyzed and graphed using GraphPad Prism software and statistical analysis is performed with Tukey's multiple comparisons test.

B1: HER3-ARC (conjugate)
heavy: QVQLVESGGGLVKPGGSLRLSCAASGFTFSDYAMSWIRQAPGKGLEWVSTISDGGTYTYYPDSVKGRFTISRDNAKNSLYLQMNSLRAEDTAVYYCAREWGDYDGFDYWGQGTLVTVSS[not shown - human IgG1 constant region]
light: DIQMTQSPSSLSASVGDRVTITCRASQEISGYLSWYQQKPGKAPKRLIYAASTLDSGVPSRFSGSGSGTEFTLTISSLQPEDFATYYCLQYDSYPYTFGQGTKLEIKRTVAAPSVFIFPPSDEQLKSGTASVVCLLNNFYPREAKVQWKVDNALQSGNSQESVTEQDSKDSTYSLSSTLTLSKADYEKHKVYACEVTHQGLSSPVTKSFNRGEC
For B1, in experiment [1], the “antitumor efficacy (tumor growth)” value is recorded as “potent antitumor efficacy”. Further, the tumor growth result in experiment [2] (dosed twice: 0.4 μCi on day 1 followed by 0.2 μCi on day 15) is “comparably profound inhibition of tumor growth”; in experiment [2] (single dose 0.4 μCi on day 1) it was “performing similarly but not as well by later time points”; in experiment [2] (triply dosed: 0.2 μCi on days 1, 7 and 16), “comparably profound inhibition of tumor growth”; in experiment [3] (0.2 μCi on each of days 1, 7 and 15), “very substantially inhibited tumor growth versus the HER3-ADC and other control arms but not to the extent as the singly and doubly dosed”; in experiment [3] (0.4 μCi on day 1 and 0.2 μCi on day 15), “comparably profound inhibition of tumor growth”; in experiment [3] (dosed singly at 4 μCi on day 1) it was “comparably profound inhibition of tumor growth”. The “tumor growth (mean tumor volume)” value in experiment [4] is “greatest suppression of tumor growth among all arms”.
